Laboratory results published in PubChem BioAssay (Tox21).
“And” between values parts separate entries of the source, which are not always exact repeats. Equal values may be shown once. Inconclusive means that the source gave no clear call. Such entries were picked first, then a sample of the others. For part of these data: Where the call is inconclusive, the potency comes from a doubtful curve fit. Some structures have more than one record in an assay (separate samples or runs), and their calls can disagree. The source made the active and inactive calls. Unless noted, calls follow the shape of the dose curve; as a rule, active = well fitted curve in the direction sought with a large enough effect in the repeat runs; inconclusive = weak or mixed curves; inactive = no such curve, though single readings can be large; an effect the other way counts as inactive or inconclusive.

Tests used:
[1] = qHTS assay to identify small molecule agonists of H2AX - cell viability counter screen (AID 1224847; calls by dose curve; also: nearly all actives have a fitted effect of over 30% in size; also: potency is read from the fitted curve at half-maximal effect)
Outline: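 Quantitative HTS viability measurement: CHO-K1 wild-type cells in serum (10% FBS) medium, short 3 hr drug exposure at 37C with 0.76% DMSO, CellTiter-Glo luminescent detection.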

[2] = qHTS assay to identify small molecule agonists of the hypoxia (HIF-1) signaling pathway (AID 1224846; active = well fitted activation curve with a large enough effect in the signal ratio in the repeat runs, not every such curve was filed as active; inconclusive = weak or mixed curves; the % refers to the signal ratio; also: potency is read from the fitted curve at half-maximal effect; as to activation: % is scaled to controls: 0 for no effect and ±100 for the full control effect); details: HRE-bla ME-180 cells, beta-lactamase ratio, 17 h; activation: at 76.8 µM (top of the series) unless noted
Outline: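 Agonist mode reporter screen. ME-180 cells stably expressing bla under HRE control received test compounds in DMSO for 17 hrs (37C, 5% CO2), and beta-lactamase activity was then detected with the CCF4-AM FRET substrate.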

[3] = A CellTox Green Cytotoxicity Assay to monitor cytotoxicity in HEK293 cells - 24 hour (AID 1224875); also: nearly all actives have a fitted effect of over 45% in size; also: potency is read from the fitted curve at half-maximal effect; as to activity change: % is scaled to controls: 0 for no effect and ±100 for the full control effect
Outline: (§1)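 Dead-cell fluorescence measured kinetically: asymmetric cyanine dye, HEK293, 600 cells/well, 5 h settle, 23 nL cpd/DMSO, 37 C, reads 0–40 h every 8 h.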

[4] = qHTS RealTime-Glo MT Cell Viability Assay in HEK293 cells - 16 hour (AID 1224872); also: nearly all actives have a fitted effect of over 50% in size; also: potency is read from the fitted curve at half-maximal effect
Outline: (§2)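 Tox21 10K qHTS, HEK293, 600 cells/well, RealTime-Glo reagent co-dispensed with cells; 5 h preincubation, compound by pintool, 37 C, luminescence at 0–40 h.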

[5] = A CellTox Green Cytotoxicity Assay to monitor cytotoxicity in HEK293 cells - 32 hour (AID 1224881); also: nearly all actives have a fitted effect of over 40% in size; also: potency is read from the fitted curve at half-maximal effect; as to cytotoxicity increase: % is scaled to controls: 0 for no effect and ±100 for the full control effect
Outline: as §1

[6] = qHTS RealTime-Glo MT Cell Viability Assay in HepG2 cells - 32 hour (AID 1224877); also: nearly all actives have a fitted effect of over 55% in size; also: potency is read from the fitted curve at half-maximal effect
Outline: (§3)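 Cells + NanoLuc/prosubstrate dispensed (600 cells/well) → 5 h at 37 C/5% CO2 → compounds in DMSO transferred → 40 h incubation at 37 C, luminescence read at 0, 8, 16, 24, 32, 40 h.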

[7] = A CellTox Green Cytotoxicity Assay to monitor cytotoxicity in HepG2 cells - 40 hour (AID 1224879); also: nearly all actives have a fitted effect of over 40% in size; also: potency is read from the fitted curve at half-maximal effect; as to cytotoxicity increase: % is scaled to controls: 0 for no effect and ±100 for the full control effect
Outline: (§4)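 First, HepG2 cells (600/well) mixed with reagent were plated; second, after 5 h at 37 C they received compounds via pintool; third, fluorescence was measured at 0 h through 40 h at 8 h intervals.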

[8] = A CellTox Green Cytotoxicity Assay to monitor cytotoxicity in HepG2 cells - 24 hour (AID 1224878); also: nearly all actives have a fitted effect of over 45% in size; also: potency is read from the fitted curve at half-maximal effect
Outline: as §4

[9] = qHTS assay to identify small molecule antagonists of the estrogen related receptor (ERR) signaling pathway from Tox21 library (AID 1224848); also: potency is read from the fitted curve at half-maximal effect; nearly all actives have a fitted effect of over 50% in size
Outline: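 ERR cell line, 2,000 cells/well. 6 h settle, then compound (DMSO) added; 18 h at 37 C; ONE-Glo luminescence after 30 min RT.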

[10] = qHTS RealTime-Glo MT Cell Viability Assay in HepG2 cells - 24 hour (AID 1224867); also: potency is read from the fitted curve at half-maximal effect; nearly all actives have a fitted effect of over 50% in size
Outline: as §3

[11] = qHTS RealTime-Glo MT Cell Viability Assay in HepG2 cells - 40 hour (AID 1224870); also: potency is read from the fitted curve at half-maximal effect; nearly all actives have a fitted effect of over 50% in size
Outline: (§5)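 Real-time viability: cells seeded at 600 per well together with NanoLuc and cell-permeant prosubstrate, compounds added after 5 h incubation. Luminescence tracked at 0, 8, 16, 24, 32 and 40 h of exposure.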

[12] = qHTS RealTime-Glo MT Cell Viability Assay in HepG2 cells - 8 hour (AID 1224873); also: potency is read from the fitted curve at half-maximal effect; nearly all actives have a fitted effect of over 55% in size
Outline: as §5

[13] = qHTS RealTime-Glo MT Cell Viability Assay in HEK293 cells - 32 hour (AID 1224868)
Outline: as §2

[14] = A CellTox Green Cytotoxicity Assay to monitor cytotoxicity in HEK293 cells - 40 hour (AID 1224871); also: nearly all actives have a fitted effect of over 45% in size; also: potency is read from the fitted curve at half-maximal effect
Outline: as §1

[15] = qHTS RealTime-Glo MT Cell Viability Assay in HEK293 cells - 40 hour (AID 1224874); details: RealTime-Glo luminescence; max response: stronger effect = lower value
Outline: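 600 HEK293 cells per well, dispensed already mixed with RealTime-Glo MT reagents. Compound dosing came 5 h later. The same wells were read for luminescence at 0, 8, 16, 24, 32 and 40 h of exposure at 37 C.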

[16] = A CellTox Green Cytotoxicity Assay to monitor cytotoxicity in HepG2 cells - 16 hour (AID 1224876); also: potency is read from the fitted curve at half-maximal effect; nearly all actives have a fitted effect of over 45% in size
Outline: as §4

[17] = qHTS assay to identify small molecule agonists of the estrogen related receptor (ERR) signaling pathway from Tox21 library (AID 1224849; calls by dose curve; also: % is scaled to controls: 0 for no effect and ±100 for the full control effect; nearly all actives have a fitted effect of over 15% in size); details: ERR reporter cell line, ONE-Glo luciferase, 18 h; at 92.4 µM (top of the series)
Outline: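 Quantitative HTS in agonist format: NTP ERR cell line, compounds transferred in DMSO after 6 h plating, 18 h incubation at 37 C, ONE-Glo luminescence endpoint.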

[18] = A CellTox Green Cytotoxicity Assay to monitor cytotoxicity in HEK293 cells - 0 hour (AID 1224869)
Outline: as §1
Tags tell the direction and shape of the fitted curve or compound fluorescence and quenching.

With `CCOC(=O)CC` the Potency [1] was “inactive”.

With `NC(=S)NC(N)=S` the Potency [2] was “inactive” and the Potency [3] was “inactive”.

For `O=c1[nH]cnc2nc[nH]c12`, the Potency [1] was inconclusive: 61.9 µM [rising, single point].

For `CCCC(=O)C(C)=O`, the Potency [1] was inconclusive: 1.6 µM [cytotoxic, single point].

With `CC(C)C(=O)OCCOc1ccccc1` the Potency [1] was “inactive”.

For `Nc1ccc2cc3ccccc3cc2c1`, the Potency [2] was inconclusive: 28 µM [fluorescent, partial curve] and inconclusive: 54.9 µM [fluorescent, partial curve], the Potency [4] was “inactive” and the Potency [5] was inconclusive: 3.14 µM [activator, partial curve, poor fit].

In the case of `Cc1cc(C)c(N)cc1C`, the Potency [2] is reported as “inactive” and the Potency [6] is reported as “inactive”.

In the case of `C=CCNc1nc(NCC=C)nc(N2CCN(C(c3ccc(F)cc3)c3ccc(F)cc3)CC2)n1`, the Potency [1] is reported as inconclusive: 15.6 µM [cytotoxic, partial curve, poor fit].

With `O=C(O)c1cccc([N+](=O)[O-])c1` the Potency [2] was “inactive” and the Potency [7] was “inactive”.

In the case of `O=C(O)C[C@H](NC(=O)OCc1ccccc1)C(=O)O`, the Potency [2] is reported as “inactive” and the Potency [5] is reported as “inactive”.

With `CCOCCOCCO` the Potency [1] was inconclusive: 101 µM [rising, partial curve, poor fit].

For `CC(C)=CCC/C(C)=C/CC/C(C)=C/CCC(=O)OC/C=C(\C)CCC=C(C)C`, the Potency [1] was inconclusive: 0.22 µM [cytotoxic, single point].

For `CCc1cccc(C)c1`, the Potency [1] was “inactive”.

For `CC(=O)CC(=O)Nc1ccc(S(=O)(=O)O)cc1`, the Potency [1] was inconclusive: 1.79 µM [cytotoxic, single point].

With `C=C(C)c1ccccc1` the Potency [1] was “inactive”.

With `CC(NN)c1ccccc1` (stereo not drawn) the activation [2] was inactive: -1.03% [at 15.8 µM] and the cytotoxicity increase [7] was inactive: 0.373% [at 15.8 µM].

With `Cc1cccc(C)c1NC(=O)c1cc(S(N)(=O)=O)c(Cl)cc1O` the Potency [1] was “inactive”.

For `Cc1ccco1`, the Potency [1] was “inactive”.

In the case of `O=c1oc(=O)c2cc3c(=O)oc(=O)c3cc12`, the Potency [1] is reported as “inactive”.

For `CSc1cnc(C)cn1`, the Potency [2] was “inactive”, the Potency [8] was active: 63.3 µM and the Potency [7] was active: 63.3 µM.

In the case of `CN(C(=O)CN(CCO)CC(=O)N(C)C(C)(C)Cc1ccccc1)C(C)(C)Cc1ccccc1`, the Potency [1] is reported as inconclusive: 55.2 µM [cytotoxic, single point], the Potency [9] is reported as inconclusive: 29.8 µM [inhibitor] and the Potency [10] is reported as inconclusive: 23.9 µM [falling, partial curve]. The Potency [11] was inconclusive: 26.8 µM [falling, partial curve], the Potency [4] was inconclusive: 19 µM [cytotoxic, partial curve] and the Potency [12] was inconclusive: 23.9 µM [falling, partial curve, poor fit]. The Potency [3] was inconclusive: 26.8 µM [activator, single point], the Potency [6] was inconclusive: 23.9 µM [cytotoxic, partial curve] and the Potency [5] was inconclusive: 26.8 µM [activator, single point].

For `CO[C@]1(NC(=O)CSC(F)F)C(=O)N2C(C(=O)O)=C(CSc3nnnn3CCO)CO[C@H]21`, the Potency [2] was “inactive” and the Potency [8] was “inactive”.

With `CCN1CCC[C@H]1CNC(=O)c1c(O)c(Cl)cc(Cl)c1OC` the Potency [1] was “inactive”.

In the case of `CCCCC1C(=O)N(c2ccccc2)N(c2ccc(O)cc2)C1=O` (stereo not drawn), the Potency [1] is reported as inconclusive: 17.5 µM [rising, full curve], the Potency [9] is reported as active: 21.1 µM and the Potency [10] is reported as inconclusive: 15.1 µM [falling, partial curve]. The Potency [13] was inconclusive: 26.8 µM [cytotoxic, single point], the Potency [14] was inconclusive: 26.8 µM [activator, single point] and the Potency [4] was inconclusive: 8.49 µM [rising, partial curve]. The Potency [15] was inconclusive: 26.8 µM [cytotoxic, single point], the Potency [3] was inconclusive: 26.8 µM [activator, single point] and the Potency [16] was inconclusive: 10.7 µM [activator, single point]. The Potency [6] was active: 16.9 µM, the Potency [8] was inconclusive: 26.8 µM [activator, single point] and the Potency [5] was inconclusive: 26.8 µM [activator, single point].

For `Cn1cnc([N+](=O)[O-])c1Sc1ncnc2nc[nH]c12`, the Potency [1] was inconclusive: 35.5 µM [cytotoxic, partial curve], the Potency [9] was inconclusive: 2.37 µM [inhibitor, partial curve, poor fit] and the activity change, positive = activation [17] was active: 19.9%. For the same compound, the Potency [13] was inconclusive: 23.9 µM [cytotoxic, single point], the Potency [18] was inconclusive: 54.6 µM [activator, single point] and the Potency [14] was active: 34.5 µM and inactive. For the same compound, the Potency [4] was inconclusive: 30.6 µM [cytotoxic, partial curve] and inconclusive: 26.8 µM [cytotoxic, partial curve, poor fit], the Potency [16] was inconclusive: 54.5 µM [activator] and the Potency [8] was inconclusive: 54.5 µM [activator, single point]. The Potency [7] was active: 54.5 µM and inactive.
